# Measured values from PubChem BioAssay AID485344 (National Center for Advancing Translational Sciences (NCATS), 2010).
# In all, about 340,000 compounds went through this assay and about 6,900 (2%) were called active. Rule as the data show it: active = inhibition above about 30%; inactive = below that, where a call was filed. The list shows a part of the results, in another mix than the full data. Entries without a call were filed so in the source.
# Biological target: D(2) dopamine receptor (Homo sapiens) (UniProt P14416)
# Experiment: HTS Assay for Allosteric Antagonists of the Human D2 Dopamine Receptor: Primary Screen for Antagonists; also: 0% is about no effect
# Conditions: HEK293 TREx D2 cells, calcium flux, dopamine EC80; at 10 µM; stronger effect = higher value
# Method in brief: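 Overnight-induced (tetracycline, 30 C) HEK293 T-REx cells carrying force-coupled D2 receive a no-wash calcium dye, then compound, then EC80 dopamine at 180 s; signals are read kinetically throughout.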
# UniProt P14416, sequence (P14416 whole entry, looked up): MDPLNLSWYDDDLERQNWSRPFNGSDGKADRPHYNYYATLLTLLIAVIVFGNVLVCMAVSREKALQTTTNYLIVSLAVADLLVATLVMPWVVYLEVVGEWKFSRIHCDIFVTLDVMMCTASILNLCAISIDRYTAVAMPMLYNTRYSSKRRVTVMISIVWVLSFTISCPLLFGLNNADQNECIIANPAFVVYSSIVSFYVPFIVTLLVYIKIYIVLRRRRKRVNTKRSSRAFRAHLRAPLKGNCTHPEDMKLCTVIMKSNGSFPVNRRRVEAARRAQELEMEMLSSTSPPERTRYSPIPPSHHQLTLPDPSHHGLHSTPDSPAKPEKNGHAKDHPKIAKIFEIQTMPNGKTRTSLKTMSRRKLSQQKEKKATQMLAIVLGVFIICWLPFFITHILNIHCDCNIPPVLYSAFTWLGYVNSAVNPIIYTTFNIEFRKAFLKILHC
row,Structure (SMILES),inhibition
1,COc1ccc(OC)c(NC(=O)CC2C(=O)NCCN2C(=O)C(F)(F)F)c1 (stereo unspecified),5.73%
2,CCOc1ccc(NC(=O)CCc2nc3cccnc3n2-c2ccccc2)cc1,1.21%
3,CCN(Cc1ccccc1)Cc1c(O)ccc2c(=O)c(-c3ccc(Cl)cc3)coc12,1.21%
4,Cc1ccc(-c2cc(-c3coc4ccc(Cl)cc4c3=O)c3c(n2)-c2ccccc2OC3)cc1,7.15%
5,O=C(NCc1ccccc1Cl)c1cnc(N2CCOCC2)c2ccccc12,3.11%
6,Cc1ccc2cccc(NC(=O)c3cccc4c(Cl)cccc34)c2n1,-9.26%
7,O=C(C1CCC(Cn2c(=O)c3sccc3n(Cc3ccccc3)c2=O)CC1)N1CCCCC1 (stereo unspecified),4.47%
8,Cc1ccc(C)c(N2CCN(C(=O)CCNS(=O)(=O)c3ccc4c(c3)CCN4C(=O)C3CC3)CC2)c1,-10.8%
9,O=C(Nc1cccc(C(F)(F)F)c1)c1cc(S(=O)(=O)N2CCCC2)c[nH]1,17.4%
10,COc1ccccc1-c1noc(-c2ccc(NCc3ccco3)c([N+](=O)[O-])c2)n1,13.4%
11,COc1ccc(NC(=O)Cn2nnc(C(=O)NCc3ccc4c(c3)OCO4)c2N)cc1,7.64%
12,Cn1c(C(=O)N2CCN(Cc3ccc4c(c3)OCO4)CC2)cc2sccc21,active: 99.7%
13,Cc1cccc(N2CCN(C(=O)c3ccc4c(Cl)c5c(nc4c3)CCCC5)CC2C)c1 (stereo unspecified),2.61%
14,CCCc1nnc(NC(=O)Cc2coc3ccc(C(C)C)cc23)s1,-12.3%
15,O=C(CSc1oc(-c2ccccc2)nc1S(=O)(=O)c1ccc(Cl)cc1)NC1CCCCC1,2.22%
16,COc1ccc(-n2nnc(-c3nsc(NC(=O)c4ccc(C)c(C)c4)n3)c2C)cc1Cl,-2.06%
17,CC(C)COC(=O)Cn1nnc2sc(-c3ccccc3)cc2c1=O,14.4%
18,COCCCNC(=O)CSc1nc2cc3c(cc2c(=O)n1CCCCCC(=O)NCc1ccc(OC)cc1)OCO3,3.18%
19,Cc1cc(C)c(NS(=O)(=O)c2cc(-c3onc(C)c3C)ccc2C)c(C)c1,3.39%
20,Cc1ccc(NC(=O)c2cnc(SCC(=O)N3CCOCC3)n(C)c2=O)cc1C,0.681%
21,CC1CCN(C(=O)c2ccc3c(c2)N(Cc2ccccc2)C(=O)c2ccccc2S3(=O)=O)CC1,-15.2%
22,O=C(CN1CCCN(S(=O)(=O)c2ccc(Br)cc2)CC1)Nc1cccc(C(F)(F)F)c1,9.88%
23,CN(C(=O)CSc1nc(C2CCCC2)nc2c1c(=O)n(C)c(=O)n2C)c1ccccc1,-14.5%
24,CCN1CCCC1CNC(=O)c1ccc(N2CCOCC2)c(NS(=O)(=O)c2ccc(OC)cc2)c1 (stereo unspecified),active: 32.8%

row,Structure (SMILES),inhibition
1,CC1CCN(C(=O)CSc2nnc(-c3ccccc3)o2)CC1,1.52%
2,COc1ccc(NC(=O)Cn2c(=O)c3cc(Cl)ccc3n3nncc23)cc1,0.63%
3,CCOc1ccc(C(=O)c2cn(CC(=O)Nc3ccc4c(c3)OCCO4)c3ccc(F)cc3c2=O)cc1,-16.5%
4,CC(C)C(=O)Nc1nnc(Cc2ccccc2)s1,active: 30.3%
5,COC(=O)CN1C(=O)CSc2ccc(S(=O)(=O)Nc3ccc(C(C)=O)cc3)cc21,5.28%
6,CCOC(=O)c1ccc(NC(=O)C(=O)NCCc2ccc(OC)cc2)cc1,2.94%
7,COc1ccc2oc(=O)c(C(=O)N3CCN(c4cc(Cl)ccc4Cl)CC3)cc2c1,2.03%
8,Cc1ccc(C)c(NC(=O)Cn2c(-c3nonc3N)nc3ccccc32)c1,16.1%
9,COc1ccccc1N1CCN(C(=O)c2cnn(C(C)(C)C)c2C2CCN(C(=O)OC(C)(C)C)CC2)CC1,-7.13%
10,CCCC(=O)Nc1cccc(-c2nc3ncccc3o2)c1,10.9%
11,COc1cc(Cl)c(C)cc1NC(=O)c1nn(-c2ccc(C)cc2)c(=O)n(C)c1=O,-7.55%
12,CCOc1ccc(S(=O)(=O)N(C(C)=O)c2ccc3oc(C)c(C(=O)OC)c3c2)cc1,-17.9%
13,Cc1ccc(CSc2nc3ccncc3n2Cc2nc(-c3ccc(Cl)cc3)oc2C)cc1,4.36%
14,CCOc1ccc(N2CC(NC(=O)c3cc4ccccc4o3)CC2=O)cc1 (stereo unspecified),-13.6%
15,CCCOC(=O)c1c(NC(=O)c2cc3nc(-c4ccc(OC)cc4)cc(C(F)(F)F)n3n2)sc2c1CCCC2,4.74%
16,COc1ccccc1CNC(=O)CCCN1C(=O)CCn2nc(-c3cn(C)c4ccccc34)cc21,4.9%
17,COc1ccccc1NCc1nnc2n1CCCCC2,9.07%
18,Cc1ccc2c(c1)N(CC(=O)NCCCN1CCCCC1)C(=O)c1cccnc1O2,-19.8%
19,COCCn1c(C)cc(/C=C2/SC(=O)N(CC(=O)N3CCCC3)C2=O)c1C,active: 34.4%
20,Fc1ccc(C(c2nnc(-c3ccccc3)o2)N2CCN(c3ccccc3)CC2)c(Cl)c1 (stereo unspecified),-3.97%
21,CC(C)C(=O)Nc1c(C(=O)N2CCN(c3ccccc3F)CC2)oc2ccccc12,10.2%
22,O=C(Nc1ccccc1N1CCOCC1)c1cccc(NS(=O)(=O)c2ccc(F)c(F)c2)c1,active: 47.7%
23,Cc1ccc(-c2nc3sc(CCNC(=O)c4ccco4)c(C)n3n2)cc1,-19.1%
24,Cc1ccc(C(=O)Nc2cc3cc(Cl)ccc3oc2=O)cc1,3.26%

row,Structure (SMILES),inhibition
1,Cc1ccc(-c2nc(CCNC(=O)C(=O)Nc3ccc(F)cc3F)cs2)cc1,5.59%
2,Cc1nc2nncn2c(Nc2ccc(F)cc2)c1C,8.9%
3,COc1ccc(Cl)cc1NC(=O)c1cc2ccccn2n1,4.86%
4,CCC(=O)N1CCc2cc(S(=O)(=O)NCCC(=O)NCc3ccc(OC)cc3)ccc21,0.11%
5,COc1cccc(-n2c(=O)c3sccc3n(Cc3cc(=O)n4cc(Cl)ccc4n3)c2=O)c1,-21.4%
6,O=C(CCN1C(=O)S/C(=C\c2ccccc2)C1=O)N1CCCCC1,active: 35%
7,CC(C)c1ccc(N2C(=O)CSC23C(=O)N(Cc2ccccc2F)c2ccccc23)cc1 (stereo unspecified),-9.41%
8,Cc1ccc(NC(=O)N2CCC(CN3CCCCCC3)CC2)c(Cl)c1,2.46%
9,Cc1nc(-c2ccc(S(=O)(=O)Nc3ccc(OC(F)(F)F)cc3)cc2)co1,9.53%
10,CCCNC(=O)c1c(NC(=O)c2ccccc2F)sc2c1CCCCC2,-2.5%
11,Cc1cccc(C(=O)OCc2cc(=O)n3nc(C4CC4)sc3n2)c1,5.64%
12,CC(C)Oc1ccc(CNS(=O)(=O)c2csc(C(N)=O)c2)cc1,0.126%
13,CCOc1ccccc1NC(=O)CCc1nc(-c2cccc(C)c2)no1,-10.9%
14,O=C1c2ccccc2C(=O)C1(c1ccccc1)N1CCN(c2cccc(C(F)(F)F)c2)CC1,11.1%
15,COc1ccc(-c2nc(C)c(CCNC(=O)c3cccs3)s2)cc1,9.93%
16,Cc1ccccc1-c1nnc(SCC(=O)N2CCCc3ccccc32)o1,2.98%
17,CCCS(=O)(=O)N1CCCC(C(=O)NCCCN2CCN(c3cccc(Cl)c3)CC2)C1 (stereo unspecified),active: 51.2%
18,Cc1cc2nc(-c3cccc(NC(=O)COc4ccc(C(C)C)cc4)c3)oc2cc1C,10.4%
19,Cc1ccc(N(C)S(=O)(=O)c2c(-c3ccccc3)csc2C(=O)O)cc1,-12.1%
20,c1ccc(N2CCN(Cc3cn4ccccc4n3)CC2)cc1,active: 36.6%
21,COc1ccc(N2CCN(C(=O)c3c(C)oc4nc(C)nc(N5CCCC5)c34)CC2)cc1,-0.34%
22,Cc1ccc(C)c2sc(N3CCN(C(=O)c4ccco4)CC3)nc12,1.15%
23,Cc1ccc(NC(=O)Cn2ncc3c4ccccc4n(Cc4ccccc4)c3c2=O)cc1Cl,-3.29%
24,Cc1cn2c(=O)c(S(=O)(=O)NC(C)c3ccccc3)c(C)nc2s1 (stereo unspecified),-0.41%

row,Structure (SMILES),inhibition
1,CN(C)C(=O)c1cc(C(=O)Cc2ccccc2)c[nH]1,active: 37.3%
2,CCOc1ccc(NC(=O)c2ccc3c(c2)c(C)c(C)n3Cc2ccc(F)cc2)cc1,9.44%
3,CC(=O)OC[C@H]1O[C@H](CCO/N=C(\C)CCN2CCCc3nc(C)c(C)cc32)C=C[C@@H]1OC(C)=O,active: 78.2%
4,Cc1ccc(NC(=O)c2cc(=O)n(Cc3ccccc3)c(=O)[nH]2)cc1C,active: 33.7%
5,CC(=O)c1cccc(NC(=O)CN2C(=O)CN(C)C(=O)c3ccccc32)c1,3.06%
6,Cc1cc(C)cc(N(C)S(=O)(=O)c2nnc(NC(=O)COc3ccc(Cl)cc3)s2)c1,4.68%
7,Cn1c(=O)c2c(nc(SCC(=O)Nc3ccc(F)cc3)n2Cc2ccc(Cl)cc2)n(C)c1=O,-1.49%
8,CCOc1ccc(Cn2c(CNS(=O)(=O)c3cccs3)nc3cccnc32)cc1,-5.82%
9,Cc1cccc(Cn2c(-c3cccs3)nc3ccccc32)c1,2.85%
10,Cc1cccn2c(=O)c3cc(C#N)c(=O)n(Cc4cccnc4)c3nc12,active: 40.6%
11,NC(=O)Cn1c(=O)n(-c2ccc(F)c(Cl)c2)c(=O)c2sc3ccccc3c21,-3.72%
12,Cc1ccc(N2CCN(c3cc(C)nc4c(-c5ccc(Cl)cc5)c(C)nn34)CC2C)cc1 (stereo unspecified),1.47%
13,CCc1nc(SCc2cc(=O)c3cc(F)ccc3[nH]2)n[nH]1,-10.2%
14,OC1(c2cccc(F)c2)CCN(Cc2ccncc2)CC1,active: 55.8%
15,CCn1ccc2cc(S(=O)(=O)N3CCCN(C(=O)Nc4ccc(C)cc4)CC3)ccc21,3.87%
16,Cc1ccc(S(=O)(=O)c2nnn3c2nc(N2CCCCC2)c2sccc23)cc1,-26.8%
17,CCN(CC)S(=O)(=O)c1ccc(NC(=O)[C@H](CCSC)N2Cc3ccccc3C2=O)cc1,10.9%
18,COc1ccc(NS(=O)(=O)c2ccc3c(c2)oc(=O)n3C)cc1Cl,-4.16%
19,COc1cccc(NC(=O)c2nnn(Cc3cccc(C(F)(F)F)c3)c2N)c1,0.919%
20,Cc1cccc(CN2C(=O)c3ccccc3S(=O)(=O)c3ccc(C(=O)N4CCCC4)cc32)c1,5.92%
21,COc1ccc(OC)c(S(=O)(=O)Nc2ccc3[nH]c(=O)[nH]c3c2)c1,-7.06%
22,CCc1ccc(OCC(=O)Nc2c(C(=O)c3ccccc3)oc3ccccc23)cc1,1.88%
23,Cc1nc(-c2cccc(S(=O)(=O)N3CCC(C(=O)NCc4ccccc4)CC3)c2)no1,25.1%
24,Cc1cc(=O)n2nc(N3CCC(C(=O)NCc4ccccc4Cl)CC3)sc2n1,5.3%
